Results taken from US20110182860A1 (priority 2009, published 2011).

Test system: Root knot nematode disease
Details: in vivo

abamectin [Control 4, reference compound]
Biocontrol efficacy, Root knot nematode disease: 47.36 ± 3.3^d % | Disease severity, Root knot nematode disease: 30.58 ± 2.7^b %

Marks after values point to notes of the source that are not given here.
